Tested on: opiate-addicted rats

What does the source list for `C[C@]12C[C@H](O)[C@H]3[C@@H](CCC4=CC(=O)CC[C@@]43C)[C@@H]1CC[C@@H]2C(=O)CO` [treatment (B), corticosterone]?
ETZ intake under denaturation conditions in the follow-up re-tests (previously addicted rats after treatment, opiate solutions denatured with quinine hydrochloride 0.1 g/l, mean +/- SEM): 100.1 ± 6.3 µg/kg/day; Effect of treatment on addiction (in words) (previously addicted rats, follow-up re-tests): did not show any effect
